# From the supplement of paper PMC8728848
# The list shows a part of the results.
# Tests used:
# Assay in all cases: glycan array binding signal (z-score within array); higher = stronger binding
# Details in all cases: glycan notation: IUPAC condensed, linker removed
# [1] = molecular target: Gal(b1-3)GlcNAc(a1-6)Gal(b1-4)GlcNAc
# In short: (§1)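 Glycan array binding is given as a within-array Z-score, which can be read as non-binding when negative. The arrays, 3228 of them, came from the Consortium for Functional Glycomics database and were retained only where the protein sequence was available. Z-scores were averaged across arrays of the same protein sequence at different concentrations or buffers and across linkers.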
# [2] = molecular target: Gal(b1-3)GlcNAc(b1-2)Man(a1-3)[Gal(b1-3)GlcNAc(b1-2)Man(a1-6)]Man(b1-4)GlcNAc(b1-4)GlcNAc
# In short: as §1
# [3] = molecular target: Gal(b1-3)GlcNAc(b1-2)Man(a1-3)[Gal(b1-3)GlcNAc(b1-2)Man(a1-6)]Man(b1-4)GlcNAc(b1-4)[Fuc(a1-6)]GlcNAc
# In short: as §1
# [4] = molecular target: Gal(b1-3)GlcNAc(b1-2)[Gal(b1-3)GlcNAc(b1-6)]Man(a1-6)[Gal(b1-3)GlcNAc(b1-2)Man(a1-3)]Man(b1-4)GlcNAc(b1-4)GlcNAc
# In short: as §1
# [5] = molecular target: Gal(b1-3)GlcNAc(b1-3)Gal(b1-3)GlcNAc
# In short: as §1
# [6] = molecular target: Gal(b1-3)GlcNAc(b1-3)Gal(b1-4)Glc
# In short: as §1
# [7] = molecular target: Gal(b1-3)GlcNAc(b1-3)Gal(b1-4)GlcNAc
# In short: as §1
# [8] = molecular target: Gal(b1-3)GlcNAc(b1-3)Gal(b1-4)GlcNAc(b1-6)[Gal(b1-3)GlcNAc(b1-3)]Gal(b1-4)Glc
# In short: as §1
# [9] = molecular target: Gal(b1-3)GlcNAc(b1-3)Gal(b1-4)[Fuc(a1-3)]GlcNAc(b1-6)[Gal(b1-3)GlcNAc(b1-3)]Gal(b1-4)Glc
# In short: as §1
# [10] = molecular target: Gal(b1-3)GlcNAc(b1-3)GalNAc
# In short: as §1
# [11] = molecular target: Gal(b1-3)GlcNAc(b1-6)Gal(b1-4)GlcNAc
# In short: as §1
# [12] = molecular target: Gal(b1-3)[Fuc(a1-4)]GlcNAc
# In short: as §1
# [13] = molecular target: Gal(b1-3)[Fuc(a1-4)]GlcNAc(b1-2)Man(a1-3)[Gal(b1-3)[Fuc(a1-4)]GlcNAc(b1-2)Man(a1-6)]Man(b1-4)GlcNAc(b1-4)GlcNAc
# In short: as §1
# [14] = molecular target: Gal(b1-3)[Fuc(a1-4)]GlcNAc(b1-2)Man(a1-3)[Gal(b1-3)[Fuc(a1-4)]GlcNAc(b1-2)Man(a1-6)]Man(b1-4)GlcNAc(b1-4)[Fuc(a1-6)]GlcNAc
# In short: as §1
# [15] = molecular target: Gal(b1-3)[Fuc(a1-4)]GlcNAc(b1-3)Gal(b1-3)[Fuc(a1-4)]GlcNAc
# In short: as §1
# [16] = molecular target: Gal(b1-3)[Fuc(a1-4)]GlcNAc(b1-3)Gal(b1-4)GlcNAc
# In short: as §1
# [17] = molecular target: Gal(b1-3)[Fuc(a1-4)]GlcNAc(b1-3)Gal(b1-4)[Fuc(a1-3)]GlcNAc
# In short: as §1
# [18] = molecular target: Gal(b1-3)[GlcNAc(b1-6)]GalNAc
# In short: as §1
# [19] = molecular target: Gal(b1-3)[Neu5Ac(a2-6)]GalNAc
# In short: as §1
# [20] = molecular target: Gal(b1-3)[Neu5Ac(a2-6)]GlcNAc(b1-6)Gal(b1-4)Glc
# In short: as §1
# [21] = molecular target: Gal(b1-3)[Neu5Ac(b2-6)]GalNAc
# In short: as §1
# Gal(b1-4)Gal = molecular target: Gal(b1-4)Gal
# In short: as §1
# [22] = molecular target: Gal(b1-4)GalNAc(a1-3)[Fuc(a1-2)]Gal(b1-4)GlcNAc
# In short: as §1
# [23] = molecular target: Gal(b1-4)GalNAc(b1-3)[Fuc(a1-2)]Gal(b1-4)GlcNAc
# In short: as §1
# Gal(b1-4)Glc = molecular target: Gal(b1-4)Glc
# In short: as §1
# Gal(b1-4)Glc6S = molecular target: Gal(b1-4)Glc6S
# In short: as §1
# Gal(b1-4)GlcNAc = molecular target: Gal(b1-4)GlcNAc
# In short: as §1
# [24] = molecular target: Gal(b1-4)GlcNAc(a1-6)Gal(b1-4)GlcNAc
# In short: as §1
# Gal(b1-4)GlcNAc(b1-2)Man = molecular target: Gal(b1-4)GlcNAc(b1-2)Man
# In short: as §1
# [25] = molecular target: Gal(b1-4)GlcNAc(b1-2)Man(a1-3)Man(b1-4)GlcNAc(b1-4)GlcNAc
# In short: as §1
# [26] = molecular target: Gal(b1-4)GlcNAc(b1-2)Man(a1-3)[Gal(b1-4)GlcNAc(b1-2)Man(a1-6)]Man(b1-4)GlcNAc(b1-4)GlcNAc
# In short: as §1
# [27] = molecular target: Gal(b1-4)GlcNAc(b1-2)Man(a1-3)[Gal(b1-4)GlcNAc(b1-2)Man(a1-6)]Man(b1-4)GlcNAc(b1-4)[Fuc(a1-6)]GlcNAc
# In short: as §1
# [28] = molecular target: Gal(b1-4)GlcNAc(b1-2)Man(a1-3)[Gal(b1-4)GlcNAc(b1-2)][GlcNAc(b1-4)]Man(b1-4)GlcNAc(b1-4)GlcNAc
# In short: as §1
# [29] = molecular target: Gal(b1-4)GlcNAc(b1-2)Man(a1-3)[GlcNAc(b1-2)Man(a1-6)]Man(b1-4)GlcNAc(b1-4)GlcNAc
# In short: as §1
# [30] = molecular target: Gal(b1-4)GlcNAc(b1-2)Man(a1-3)[Man(a1-6)]Man(b1-4)GlcNAc(b1-4)GlcNAc
# In short: as §1
# [31] = molecular target: Gal(b1-4)GlcNAc(b1-2)Man(a1-6)Man(b1-4)GlcNAc(b1-4)GlcNAc
# In short: as §1
# [32] = molecular target: Gal(b1-4)GlcNAc(b1-2)Man(a1-6)[GlcNAc(b1-2)Man(a1-3)]Man(b1-4)GlcNAc(b1-4)GlcNAc
# In short: as §1
# [33] = molecular target: Gal(b1-4)GlcNAc(b1-2)Man(a1-6)[Man(a1-3)]Man(b1-4)GlcNAc(b1-4)GlcNAc
# In short: as §1
# [34] = molecular target: Gal(b1-4)GlcNAc(b1-2)[Gal(b1-4)GlcNAc(b1-4)]Man(a1-3)[Gal(b1-4)GlcNAc(b1-2)Man(a1-6)]Man(b1-4)GlcNAc(b1-4)GlcNAc
# In short: as §1
# [35] = molecular target: Gal(b1-4)GlcNAc(b1-2)[Gal(b1-4)GlcNAc(b1-4)]Man(a1-3)[Gal(b1-4)GlcNAc(b1-2)[Gal(b1-4)GlcNAc(b1-6)]Man(a1-6)]Man(b1-4)GlcNAc(b1-4)GlcNAc
# In short: as §1
# [36] = molecular target: Gal(b1-4)GlcNAc(b1-2)[Gal(b1-4)GlcNAc(b1-4)]Man(a1-3)[GlcNAc(b1-4)][Gal(b1-4)GlcNAc(b1-2)Man(a1-6)]Man(b1-4)GlcNAc(b1-4)GlcNAc
# In short: as §1
# [37] = molecular target: Gal(b1-4)GlcNAc(b1-2)[Gal(b1-4)GlcNAc(b1-4)]Man(a1-3)[GlcNAc(b1-4)][Gal(b1-4)GlcNAc(b1-2)[Gal(b1-4)GlcNAc(b1-6)]Man(a1-6)]Man(b1-4)GlcNAc(b1-4)GlcNAc
# In short: as §1
# [38] = molecular target: Gal(b1-4)GlcNAc(b1-2)[Gal(b1-4)GlcNAc(b1-6)]Man(a1-6)[Gal(b1-4)GlcNAc(b1-2)Man(a1-3)]Man(b1-4)GlcNAc(b1-4)GlcNAc
# In short: as §1
# [39] = molecular target: Gal(b1-4)GlcNAc(b1-2)[Gal(b1-4)GlcNAc(b1-6)]Man(a1-6)[GlcNAc(b1-4)][Gal(b1-4)GlcNAc(b1-2)Man(a1-3)]Man(b1-4)GlcNAc(b1-4)GlcNAc
# In short: as §1
# [40] = molecular target: Gal(b1-4)GlcNAc(b1-3)Gal(b1-3)GlcNAc
# In short: as §1
binder,measurement,setting,value
"Eosinophil cationic protein (ECP) (Homo sapiens), P12724 (protein) MVPKLFTSQICLLLLLGLMGVEGSLHARPPQFTRAQWFAIQHISLNPPRCTIAMRAINNYRWRCKNQNTFLRTTFANVVNVCGNQSIRCPHNRTLNNCHRSRFRVPLLHCDLINPGAQNISNCTYADRPGRRFYVVACDNRDPRDSPRYPVVPVHLDTTI",glycan array binding signal (z-score),[1],-0.238
same,glycan array binding signal (z-score),[2],-0.176
same,glycan array binding signal (z-score),[3],0.147
same,glycan array binding signal (z-score),[4],-0.092
same,glycan array binding signal (z-score),[5],0.025
same,glycan array binding signal (z-score),[6],-0.253
same,glycan array binding signal (z-score),[7],0.202
same,glycan array binding signal (z-score),[8],0.276
same,glycan array binding signal (z-score),[9],-0.22
same,glycan array binding signal (z-score),[10],-0.014
same,glycan array binding signal (z-score),[11],-0.17
same,glycan array binding signal (z-score),[12],-0.208
same,glycan array binding signal (z-score),[13],0.007
same,glycan array binding signal (z-score),[14],0.256
same,glycan array binding signal (z-score),[15],-0.059
same,glycan array binding signal (z-score),[16],0.054
same,glycan array binding signal (z-score),[17],-0.2
same,glycan array binding signal (z-score),[18],-0.518
same,glycan array binding signal (z-score),[19],0.086
same,glycan array binding signal (z-score),[20],0.277
same,glycan array binding signal (z-score),[21],-0.096
same,glycan array binding signal (z-score),Gal(b1-4)Gal,-0.507
same,glycan array binding signal (z-score),[22],-0.056
same,glycan array binding signal (z-score),[23],-0.133
same,glycan array binding signal (z-score),Gal(b1-4)Glc,-0.201
same,glycan array binding signal (z-score),Gal(b1-4)Glc6S,-0.127
same,glycan array binding signal (z-score),Gal(b1-4)GlcNAc,0.034
same,glycan array binding signal (z-score),[24],-0.081
same,glycan array binding signal (z-score),Gal(b1-4)GlcNAc(b1-2)Man,0.036
same,glycan array binding signal (z-score),[25],-0.103
same,glycan array binding signal (z-score),[26],-0.169
same,glycan array binding signal (z-score),[27],0.16
same,glycan array binding signal (z-score),[28],-0.099
same,glycan array binding signal (z-score),[29],-0.142
same,glycan array binding signal (z-score),[30],-0.196
same,glycan array binding signal (z-score),[31],-0.08
same,glycan array binding signal (z-score),[32],-0.194
same,glycan array binding signal (z-score),[33],0.017
same,glycan array binding signal (z-score),[34],-0.304
same,glycan array binding signal (z-score),[35],-0.332
same,glycan array binding signal (z-score),[36],-0.165
same,glycan array binding signal (z-score),[37],-0.153
same,glycan array binding signal (z-score),[38],0.104
same,glycan array binding signal (z-score),[39],-0.105
same,glycan array binding signal (z-score),[40],-0.333
